Test results: PMC9911399, “Two distinct binding modes provide the RNA-binding protein RbFox with extraordinary sequence specificity”
Residue numbers refer to the chain shown, from its start. Some of the results follow.

B1: AUAUGUC (DNA:RNA)
RNA: GGGAGACCGGAAUUCAGAUUGUCCAUAUGUCUUAAAUCCCGUCGUAGCCACCA
DNA 1: CAATCTGAATTCCGGTCTCCC
DNA 2: TGGTGGCTACGACGGGATT
B2: CAUAAGU (DNA:RNA)
RNA: GGGAGACCGGAAUUCAGAUUGUCCCAUAAGUUUAAAUCCCGUCGUAGCCACCA
DNA 1: CAATCTGAATTCCGGTCTCCC
DNA 2: TGGTGGCTACGACGGGATT
B3: UAGCCUG (DNA:RNA)
RNA: B1 RNA with A25U, U26A, A27G, U28C, G29C, C31G
DNA 1: CAATCTGAATTCCGGTCTCCC
DNA 2: TGGTGGCTACGACGGGATT
B4: ACGUGAG (DNA:RNA)
RNA: B1 RNA with U26C, A27G, U30A, C31G
DNA 1: CAATCTGAATTCCGGTCTCCC
DNA 2: TGGTGGCTACGACGGGATT
B5: UAAUCAC (DNA:RNA)
RNA: B1 RNA with A25U, U26A, G29C, U30A
DNA 1: CAATCTGAATTCCGGTCTCCC
DNA 2: TGGTGGCTACGACGGGATT
B6: GGUCGGC (DNA:RNA)
RNA: B1 RNA with A25G, U26G, A27U, U28C, U30G
DNA 1: CAATCTGAATTCCGGTCTCCC
DNA 2: TGGTGGCTACGACGGGATT
B7: UAAAAAG (DNA:RNA)
RNA: B2 RNA with C25U, U27A, G30A, U31G
DNA 1: CAATCTGAATTCCGGTCTCCC
DNA 2: TGGTGGCTACGACGGGATT
B8: UCCUUGC (DNA:RNA)
RNA: B1 RNA with A25U, U26C, A27C, G29U, U30G
DNA 1: CAATCTGAATTCCGGTCTCCC
DNA 2: TGGTGGCTACGACGGGATT
B9: CGAUUAA (DNA:RNA)
RNA: B1 RNA with A25C, U26G, G29U, U30A, C31A
DNA 1: CAATCTGAATTCCGGTCTCCC
DNA 2: TGGTGGCTACGACGGGATT
B10: UUCUCGC (DNA:RNA)
RNA: B1 RNA with A25U, A27C, G29C, U30G
DNA 1: CAATCTGAATTCCGGTCTCCC
DNA 2: TGGTGGCTACGACGGGATT
B11: UCGUUUU (DNA:RNA)
RNA: B1 RNA with A25U, U26C, A27G, G29U, C31U
DNA 1: CAATCTGAATTCCGGTCTCCC
DNA 2: TGGTGGCTACGACGGGATT
B12: GUGGUCG (DNA:RNA)
RNA: B1 RNA with A25G, A27G, U28G, G29U, U30C, C31G
DNA 1: CAATCTGAATTCCGGTCTCCC
DNA 2: TGGTGGCTACGACGGGATT
B13: CCCUCGC (DNA:RNA)
RNA: B1 RNA with A25C, U26C, A27C, G29C, U30G
DNA 1: CAATCTGAATTCCGGTCTCCC
DNA 2: TGGTGGCTACGACGGGATT
B14: CCCUAAC (DNA:RNA)
RNA: B1 RNA with A25C, U26C, A27C, G29A, U30A
DNA 1: CAATCTGAATTCCGGTCTCCC
DNA 2: TGGTGGCTACGACGGGATT
B15: CACUGGU (DNA:RNA)
RNA: B2 RNA with U27C, A28U, A29G
DNA 1: CAATCTGAATTCCGGTCTCCC
DNA 2: TGGTGGCTACGACGGGATT
B16: GUCUGUU (DNA:RNA)
RNA: B1 RNA with A25G, A27C, C31U
DNA 1: CAATCTGAATTCCGGTCTCCC
DNA 2: TGGTGGCTACGACGGGATT
B17: AGAACCG (DNA:RNA)
RNA: B1 RNA with U26G, U28A, G29C, U30C, C31G
DNA 1: CAATCTGAATTCCGGTCTCCC
DNA 2: TGGTGGCTACGACGGGATT
B18: UACAAGU (DNA:RNA)
RNA: B2 RNA with C25U, U27C
DNA 1: CAATCTGAATTCCGGTCTCCC
DNA 2: TGGTGGCTACGACGGGATT
B19: GAGAUAG (DNA:RNA)
RNA: B2 RNA with C25G, U27G, A29U, G30A, U31G
DNA 1: CAATCTGAATTCCGGTCTCCC
DNA 2: TGGTGGCTACGACGGGATT
B20: AGGAUUU (DNA:RNA)
RNA: B1 RNA with U26G, A27G, U28A, G29U, C31U
DNA 1: CAATCTGAATTCCGGTCTCCC
DNA 2: TGGTGGCTACGACGGGATT

biological target: T1, RBFOX1 RRM RbFoxmut (Fox-RRM*) (Homo sapiens, UniProt Q9NWB1 109-208, R118D;E147R;N151S;E152T); test: EMSA; HiTS-Eq, 1 nM pool, 10 min; buffer printed only for the single-RNA assays: 10 mM Tris pH 7.5, 150 mM NaCl, 3.4 mM EDTA, 0.001% NP-40, 30 C; settings: tags: His6 N-terminal (pET28a); label: 5' 32P
T1 sequence: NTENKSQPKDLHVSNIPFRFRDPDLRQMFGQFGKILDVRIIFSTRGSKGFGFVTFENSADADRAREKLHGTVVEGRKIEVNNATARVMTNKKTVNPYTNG
Outline: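 These values rest on relative association constants, computed from read-count changes of each RNA species versus the control reaction and normalised to the cognate motif. Reads came from free RNA recovered by 8% native PAGE after purified RbFox RRM (wild type or mutant) at increasing concentrations was equilibrated for 10 min in 50 µL with 1 nM of a 5′-radiolabelled pool with 7 randomized nucleotides and DNA-annealed flanks.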

Question: For B1, which binding signal is on record?
Answer: 0.222 KA relative to UGCAUGU

Question: How did the binding signal turn out when B2 was run?
Answer: 0.135 KA relative to UGCAUGU

Question: With B3 as the binder, how does the binding signal read?
Answer: 0.14 KA relative to UGCAUGU

Question: B4 was tested. Which binding signal did it give?
Answer: 0.13 KA relative to UGCAUGU

Question: Which binding signal does the source give for B5 here?
Answer: 0.0502 KA relative to UGCAUGU

Question: For B6, which binding signal is on record?
Answer: 0.0997 KA relative to UGCAUGU

Question: B7 was tested. Which binding signal did it give?
Answer: 0.0843 KA relative to UGCAUGU

Question: B8 was tested. Which binding signal did it give?
Answer: 0.108 KA relative to UGCAUGU

Question: For B9, which binding signal is on record?
Answer: 0.128 KA relative to UGCAUGU

Question: How did the binding signal turn out when B10 was run?
Answer: 0.0961 KA relative to UGCAUGU

Question: B11 was tested. Which binding signal did it give?
Answer: 0.0973 KA relative to UGCAUGU

Question: B12 was tested. Which binding signal did it give?
Answer: 0.311 KA relative to UGCAUGU

Question: For B13, which binding signal is on record?
Answer: 0.12 KA relative to UGCAUGU

Question: B14 was tested. Which binding signal did it give?
Answer: 0.0862 KA relative to UGCAUGU

Question: B15 was tested. Which binding signal did it give?
Answer: 0.12 KA relative to UGCAUGU

Question: For B16, which binding signal is on record?
Answer: 0.13 KA relative to UGCAUGU

Question: With B17 as the binder, how does the binding signal read?
Answer: 0.108 KA relative to UGCAUGU

Question: B18 was tested. Which binding signal did it give?
Answer: 0.0549 KA relative to UGCAUGU

Question: With B19 as the binder, how does the binding signal read?
Answer: 0.119 KA relative to UGCAUGU

Question: B20 was tested. Which binding signal did it give?
Answer: 0.105 KA relative to UGCAUGU
